Experimental data as given in the supplement of paper PMC3334620.
The full ranking holds about 33,000 sequences; the median of “E-score (-0.5 to 0.5)” is about -0.043, and the highest 2% start at about 0.37. The list shows a part of the results.

target: T1, Upc2 (UniProt Q12151); test: PBM E-score (8-mer binding enrichment) (E-score (-0.5 to 0.5)); higher = stronger / more preferred TF binding; most listed sequences are background and not binding sites; conditions: protein concentration: 200 nM; construct: GST-full length
T1 sequence: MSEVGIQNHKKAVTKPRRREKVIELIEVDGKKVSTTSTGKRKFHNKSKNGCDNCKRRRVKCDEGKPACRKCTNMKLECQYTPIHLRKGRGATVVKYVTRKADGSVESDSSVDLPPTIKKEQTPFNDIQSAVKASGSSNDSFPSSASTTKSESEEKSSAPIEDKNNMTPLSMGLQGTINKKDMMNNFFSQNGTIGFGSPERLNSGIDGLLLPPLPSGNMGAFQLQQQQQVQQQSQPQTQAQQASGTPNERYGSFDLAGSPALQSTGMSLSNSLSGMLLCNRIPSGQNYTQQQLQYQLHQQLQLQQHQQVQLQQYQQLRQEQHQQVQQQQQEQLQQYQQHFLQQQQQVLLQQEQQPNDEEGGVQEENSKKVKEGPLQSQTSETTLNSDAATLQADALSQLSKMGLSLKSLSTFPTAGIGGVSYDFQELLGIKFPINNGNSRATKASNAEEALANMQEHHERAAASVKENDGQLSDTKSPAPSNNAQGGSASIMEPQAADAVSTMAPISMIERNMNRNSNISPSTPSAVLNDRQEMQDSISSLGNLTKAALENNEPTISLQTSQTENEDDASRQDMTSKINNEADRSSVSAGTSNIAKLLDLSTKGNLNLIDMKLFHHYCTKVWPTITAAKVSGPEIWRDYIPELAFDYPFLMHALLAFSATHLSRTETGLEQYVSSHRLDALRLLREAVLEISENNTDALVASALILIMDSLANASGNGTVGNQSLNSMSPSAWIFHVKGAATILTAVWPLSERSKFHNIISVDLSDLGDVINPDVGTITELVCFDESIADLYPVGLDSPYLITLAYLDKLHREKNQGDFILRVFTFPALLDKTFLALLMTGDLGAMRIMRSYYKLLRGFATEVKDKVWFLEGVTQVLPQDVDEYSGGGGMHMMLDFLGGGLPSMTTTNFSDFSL
Outline: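 Yeast transcription factors carrying a GST tag, as full-length proteins or DNA-binding domains, were produced by PURExpress in vitro transcription/translation. About 100-200 nM protein was applied to universal all-10-mer Agilent arrays, double-stranded by primer extension on fresh or once-stripped slides. Bound protein was detected with fluorescent anti-GST, and scans were normalised with masliner. The Universal PBM Analysis Suite gave each ungapped eight-base word, pooled with its reverse complement, an E-score, a modified Wilcoxon-Mann-Whitney statistic.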

| Sequence | PBM E-score |
| --- | --- |
| GTGTTAAA | 0.121 |
| CCATGCCG | -0.135 |
| GGCAGGTA | -0.0971 |
| CCAAGGTA | -0.0848 |
| ACCGGCTA | -0.145 |
| GGAAGCGA | 0.145 |
| GCTTGACC | -0.149 |
| AAGGATAA | -0.194 |
| AAAGGAGA | -0.22 |
| AGAAACGC | -0.037 |
| ATGTCCGG | -0.241 |
| ATAACGCA | -0.0164 |
| GTAGGTAA | -0.0947 |
| TAACCACA | 0.00669 |
| TGTAAACA | -0.0818 |
| CATCGCTA | 0.0355 |
| CCGGAAAG | -0.147 |
| GGCTAACC | -0.0479 |
| GCTCGTCA | 0.0569 |
| AAACTAAA | 0.112 |
| ACAGCTAC | -0.0575 |
| CTAATGTA | 0.0584 |
| GAAGAAAC | 0.0334 |
| CTCTGACC | -0.181 |
| CTTCTGTC | -0.124 |

| Sequence | PBM E-score |
| --- | --- |
| ACATGTAC | 0.12 |
| CGCATTTC | 0.0626 |
| CGGGAAAG | -0.0714 |
| ACGGTCAT | 0.122 |
| CCAAATCA | -0.0311 |
| GGACGTAA | 0.0273 |
| GGGAACTA | 0.0723 |
| CACGGAGC | -0.119 |
| ACCCCCGA | -0.158 |
| GCATACCA | 0.00545 |
| ACCCATGA | -0.237 |
| ACGGATGC | 0.189 |
| TGGATCAA | -0.162 |
| ATAGACCC | -0.0795 |
| CAGTCGAC | 0.0776 |
| AGTCTGTA | 0.196 |
| GGCTCCAA | -0.185 |
| AGAGTGGC | -0.188 |
| GATGAAGA | -0.0943 |
| GAGCCCGC | 0.00594 |
| ATCGCATC | -0.00142 |
| CCAGCAGG | -0.145 |
| GTGCGGTA | 0.151 |
| CTTACTCA | -0.206 |
| AGCTCAAT | -0.126 |

| Sequence | PBM E-score |
| --- | --- |
| AGTAGAGC | -0.207 |
| TGTCCGAA | 0.113 |
| AGGTTGAG | -0.171 |
| ATAATGAC | -0.107 |
| CTGCGCCA | -0.117 |
| AACTTCGC | 0.155 |
| ACAGGAGC | -0.057 |
| AACCTCTA | -0.0646 |
| CTGTTTTC | -0.0151 |
| GTAAGGAC | -0.0992 |
| GTAACGGA | 0.208 |
| AAGAGCTT | -0.0155 |
| GTTTAAAC | 0.356 |
| ACAGGACG | -0.152 |
| AACTGGAG | -0.161 |
| AGGTCTGC | -0.144 |
| ATAGAAAC | 0.0284 |
| AACGTATC | 0.142 |
| CCGGTACC | -0.196 |
| GAAGTGTA | -0.0563 |
| CCTCCGTC | -0.255 |
| AATACTAC | 0.143 |
| AGTAGACG | 0.0762 |
| ACGCTATC | 0.112 |
| CGTGTAAG | 0.129 |

| Sequence | PBM E-score |
| --- | --- |
| TATGACCA | 0.0212 |
| GATTCCAA | -0.0872 |
| GCGTGCCA | -0.128 |
| ATACTATC | 0.0165 |
| CCCAGGAC | -0.273 |
| AAGCACAC | -0.0833 |
| ATCCCGGC | 0.0725 |
| CTATCGGA | 0.0507 |
| CAGGCTGG | -0.0415 |
| CTAATCCC | -0.123 |
| AAACAGCA | 0.0181 |
| AACAAAGA | 0.0672 |
| CTGGAGTA | 0.00167 |
| CTGTGCGA | 0.217 |
| AAAGCGCG | -0.03 |
| CTAGACCC | -0.135 |
| ATTTCCGA | 0.107 |
| TGTTTCAA | -0.0233 |
| GCAATATA | 0.00238 |
| AAGTCTGC | -0.16 |
| AGACTTCG | 0.13 |
| ACGCCTAA | 0.0663 |
| ACCCCCAA | -0.179 |
| CGTGAGTC | 0.0655 |
| GCTACGGA | 0.226 |

| Sequence | PBM E-score |
| --- | --- |
| CAACACGC | -0.142 |
| CGCCCATC | -0.157 |
| CGATCTAG | -0.0452 |
| ACTCCGAT | -0.279 |
| ATGGGCTC | -0.0478 |
| AGACCTTG | -0.186 |
| AAACCTCC | -0.176 |
| AGTTCTGC | 0.0833 |
| ACTAATAA | 0.0239 |
| CGCGTACG | 0.4 |
| ACCGGCTG | -0.293 |
| CAAGCTTC | -0.0224 |
| ACGGAACA | 0.159 |
| CCAATAAC | 0.00883 |
| CTTACTGC | -0.179 |
| GCGACGTA | 0.218 |
| ACCGCGAA | 0.0233 |
| CATACCCC | -0.0287 |
| GTTATCAA | -0.0859 |
| ATCAGCGA | 0.0575 |
| CTTATGGA | -0.0859 |
| GGTCATAC | 0.148 |
| GCCCCTCA | -0.0083 |
| AACGTGAA | -6e-05 |
| CGACACGC | 0.125 |

| Sequence | PBM E-score |
| --- | --- |
| ATCGATCG | 0.136 |
| ATGATGGA | -0.15 |
| AATAGCTC | -0.144 |
| AATCCTAG | -0.0768 |
| GCCTTGAA | -0.189 |
| GCGGTTTA | -0.011 |
| ATGCGATA | 0.158 |
| ATGCGAGG | 0.295 |
| CCCGCAGA | -0.137 |
| AAAACCCC | -0.124 |
| TCTACACA | 0.0099 |
| TCCCCCCA | -0.408 |
| CAAATGAA | 0.19 |
| AGCCACGC | -0.0888 |
| AAGTTCCA | -0.151 |
| ATAGTTTG | -0.0286 |
| CAAGGGCC | -0.237 |
| GAGGCTCC | -0.0334 |
| TAAAGTTA | 0.0564 |
| CCGCGACC | -0.248 |
| AAATTGCC | 0.105 |
| ATGGCTCC | -0.188 |
| CCCGGTCG | 0.0997 |
| AGCTAGAA | -0.197 |
| AGCTGAGA | -0.232 |

| Sequence | PBM E-score |
| --- | --- |
| GGACGACC | -0.212 |
| CAGCAACG | 0.18 |
| AAACGTTC | 0.205 |
| CTACCCCA | -0.159 |
| CTGATCTA | -0.0914 |
| AGCAGCGG | -0.0845 |
| ACCGCTCT | -0.249 |
| CATGAATC | -0.0543 |
| AATCGTAA | 0.368 |
| CCAGCATC | -0.219 |
| GAGACCGC | -0.222 |
| CGCTTGTC | 0.07 |
| GTGCTGTA | 0.0622 |
| AGGAGTGG | -0.22 |
| CACTAGGC | -0.255 |
| CACCAAAA | -0.0642 |
| ACTACGGA | -0.114 |
| AACACTGC | -0.0369 |
| ATTCAAGC | 0.158 |
| TCTGGTCA | -0.222 |
| CAATCATA | -0.0431 |
| TAAGGGCA | -0.0577 |
